Measurements published in article PMC4336329 (PLoS ONE, 2015).
Out of some 310,000 compounds screened, about 14,000 (4.5%) showed an effect of 50% or more. The effect is printed as a negative number. Some of the results follow.

What follows are compounds tested against human ether-à-go-go-related gene (hERG) potassium channel (human, UniProt Q12809) (assay: primary screen, population patch clamp on CHO cells stably expressing hERG).
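Further: peak tail current of the secondary pulse compared with the same well before compound.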

human ether-à-go-go-related gene (hERG) potassium channel, sequence (Q12809 whole entry, looked up): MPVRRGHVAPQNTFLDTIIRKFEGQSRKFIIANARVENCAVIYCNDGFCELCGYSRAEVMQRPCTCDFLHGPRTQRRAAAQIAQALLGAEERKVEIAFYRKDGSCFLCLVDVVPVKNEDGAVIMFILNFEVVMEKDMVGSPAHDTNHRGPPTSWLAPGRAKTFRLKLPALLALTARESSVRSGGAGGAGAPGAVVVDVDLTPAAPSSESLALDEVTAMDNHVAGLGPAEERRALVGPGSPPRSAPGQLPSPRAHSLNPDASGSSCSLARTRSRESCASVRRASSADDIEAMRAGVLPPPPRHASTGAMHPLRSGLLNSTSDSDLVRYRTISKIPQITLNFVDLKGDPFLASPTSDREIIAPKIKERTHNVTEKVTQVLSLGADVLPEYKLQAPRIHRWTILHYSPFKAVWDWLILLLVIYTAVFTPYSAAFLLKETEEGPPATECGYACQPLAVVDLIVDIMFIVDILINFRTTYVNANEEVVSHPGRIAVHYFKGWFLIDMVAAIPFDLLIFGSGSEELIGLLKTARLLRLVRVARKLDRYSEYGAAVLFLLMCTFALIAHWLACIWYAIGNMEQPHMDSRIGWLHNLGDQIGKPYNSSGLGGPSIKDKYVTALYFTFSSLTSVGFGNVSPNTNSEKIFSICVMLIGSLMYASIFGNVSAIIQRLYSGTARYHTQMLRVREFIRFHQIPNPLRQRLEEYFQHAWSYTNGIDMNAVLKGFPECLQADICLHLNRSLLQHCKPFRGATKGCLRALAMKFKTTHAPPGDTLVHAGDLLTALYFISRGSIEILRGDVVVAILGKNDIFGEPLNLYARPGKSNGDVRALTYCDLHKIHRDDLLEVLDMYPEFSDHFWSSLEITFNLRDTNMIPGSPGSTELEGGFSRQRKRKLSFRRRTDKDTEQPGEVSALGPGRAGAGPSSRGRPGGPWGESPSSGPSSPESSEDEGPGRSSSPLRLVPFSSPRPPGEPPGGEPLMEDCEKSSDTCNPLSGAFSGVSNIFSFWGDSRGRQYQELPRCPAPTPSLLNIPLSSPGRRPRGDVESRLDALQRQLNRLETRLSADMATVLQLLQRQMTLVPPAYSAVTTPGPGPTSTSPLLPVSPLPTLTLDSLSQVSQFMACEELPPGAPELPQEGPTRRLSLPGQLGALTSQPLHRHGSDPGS

Structure (SMILES)	hERG current change (%, negative = inhibition) at 10uM
CC(=O)Nc1ccc(NC(=O)Cn2ccc([N+](=O)[O-])n2)cc1	3.89%
O=C(CCN1CCOCC1)N1CCCC(Nc2cccc(F)c2)C1 (centres unmarked)	-1.16%
O=C(NCc1ccco1)C1CCCCC1	-2.94%
Cc1noc(C)c1COC(=O)CCc1nc2ccccc2s1	3.17%
COc1ccccc1C(=O)n1nc(-c2ccco2)nc1SC	10.2%
CN(CCOc1ccccc1)C(=O)C1CCC(=O)N(CCCN2CCCC2=O)C1 (centres unmarked)	27.5%
CC(C)Cc1ccc(S(=O)(=O)Nc2cccnc2)cc1	9.66%
Cc1ccc(C(=O)N/C(=C\c2ccc3c(c2)OCO3)C(=O)Nc2ccc(C(=O)O)cc2)cc1	17.9%
Cc1ccc(C2CC(=O)NC(SCC(N)=O)=C2C#N)s1 (centres unmarked)	-5.34%
O=C1COc2ccc(C(=O)COC(=O)/C=C/c3ccc(Br)o3)cc2N1	-8.26%
CC(C)c1ccc(Nc2ccc(C(=O)O)cc2[N+](=O)[O-])cc1	25.4%
Cc1cccc(C)c1-n1c(C)nn(Cc2ccc([N+](=O)[O-])cc2)c1=O	-30.8%
Nc1nc(Br)c2c(F)cccc2c1-c1ccc(Cl)cc1	-22.6%
COC(=O)c1ccn(CSc2c(F)c(F)cc(F)c2F)n1	15.3%
Cn1cc(S(=O)(=O)N2CCCC2)cc1C(=O)N1CCN(c2ccccc2)CC1	-35.8%
CCN1CCN(CCC(=O)Nc2ccc(Br)cc2)CC1.Cl	-24.4%
Cc1ccc(C)c(OCCC(=O)NNC(=O)Cn2nc(C)cc2C)c1	21.8%
Cc1cccc(C(=O)N2CCc3cc(-c4nc(NC(=O)CN5CCCC5)sc4C)ccc32)c1	-0.886%
COc1cccc(C(=O)N2CCN(Cc3ccc(OC)cc3OC)CC2)c1.O=C(O)C(=O)O	-38.9%
CCc1nnc(NC(=O)c2ccc(OC)cc2OC)s1	-1.35%
CN(C(=O)COC(=O)c1cc(Br)c(Br)s1)C1CCS(=O)(=O)C1 (centres unmarked)	-39.1%
COC(=O)c1ccc(COc2cc([N+](=O)[O-])cc3cccnc23)cc1	16.3%

Structure (SMILES)	hERG current change (%, negative = inhibition) at 10uM
COC(=O)C1=C[C@@H](C(=O)OC)[C@@H]2C3=C(C(=O)[C@]2(CC(C)C)NC(=O)c2ccccc2)[C@H](C)n2c(=O)n(-c4ccccc4)c(=O)n2[C@@H]3C1	-8.87%
COc1ccc(C(CC(=O)Nc2cc(C)ccn2)N2Cc3ccccc3C2=O)cc1 (centres unmarked)	-9.05%
CCN(c1ccc(NC(=O)c2ccc(N3CCCC3=O)cc2)cc1)C(C)C	5.87%
N#Cc1ccccc1OCC(=O)NCC1(N2CCCCC2)CCCCC1	-29.4%
Cc1cc(C)nc(NS(=O)(=O)c2cccs2)c1	3.36%
O=C(NCc1ccc(F)cc1)c1cccc2c1C(=O)N(Cc1cccnc1)C2	-61.8%
CC(C)(C)c1ccc(C(=O)N2CCCN(c3ccc([N+](=O)[O-])cn3)CC2)cc1	-72.3%
CC(C)Oc1ccc(OCCSc2nc3ccccc3n2CC(=O)O)cc1	9.73%
O=C(C[n+]1cc(-c2ccc(Cl)c(Cl)c2)n2c1CCC2)c1cccs1.[Br-]	-3.09%
COC(=O)CNC(=O)CN1c2cccc3cccc(c23)S1(=O)=O	-13.9%
COCCCn1c(SCC(=O)NC2CCCC2)nnc1-c1cccs1	-3.3%
O=C(c1ccoc1)N1CCC(CO)(CCc2ccccc2)CC1	-28.7%
Cc1noc(/C=C/c2cccs2)c1S(=O)(=O)N1CCC(C(=O)NCCCN2CCC(C)CC2)CC1	-83.7%
Cc1[nH]nc(SCC(=O)NCCc2ccccc2)c1[N+](=O)[O-]	15.9%
COc1ccc2c(c1)cc(C(=O)N[C@@H](CCSC)C(=O)N1CCC(C(=O)O)CC1)n2C	21.1%
Cc1c(CCC(=O)NCCC(=O)O)c(=O)oc2c(C)c3oc4c(c3cc12)CCCC4	10.7%
CC(C)c1ccc(NC(=O)CN2C(=O)COc3ccc(S(=O)(=O)N4CCOCC4)cc32)cc1	16.9%
COc1ccc(CNc2nc3ccccc3n2C)c(O)c1	1.38%
Oc1ccc(C=NCC2COc3ccccc3O2)cc1 (centres unmarked)	-22%
O=C(NNc1ccnc2cc(Cl)ccc12)C1CCCCC1	16.1%
Cc1ccccc1Oc1nc2ccccc2n2cnnc12	7.65%
O=C(NCc1ccco1)NC(=O)c1csc([N+](=O)[O-])c1	11.4%
